# From the supplement of paper PMC3334620
# In all, about 33,000 sequences were measured (“E-score (-0.5 to 0.5)”: median about -0.013, highest 2% from about 0.3 on). The list shows a part of the results.
# Target: T1, Msn1 (UniProt P22148)
# T1 sequence: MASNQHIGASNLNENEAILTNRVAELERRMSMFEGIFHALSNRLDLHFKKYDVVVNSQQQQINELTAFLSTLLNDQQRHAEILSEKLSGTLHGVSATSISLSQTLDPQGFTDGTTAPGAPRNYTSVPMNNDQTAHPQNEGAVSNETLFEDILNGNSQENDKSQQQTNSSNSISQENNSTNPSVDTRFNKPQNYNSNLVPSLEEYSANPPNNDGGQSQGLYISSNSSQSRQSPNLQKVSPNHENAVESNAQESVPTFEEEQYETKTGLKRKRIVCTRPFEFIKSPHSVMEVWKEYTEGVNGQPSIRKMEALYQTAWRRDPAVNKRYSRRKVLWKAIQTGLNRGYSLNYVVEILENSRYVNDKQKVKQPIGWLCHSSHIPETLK
# Test: PBM E-score (8-mer binding enrichment) (E-score (-0.5 to 0.5)); higher = stronger / more preferred TF binding; most listed sequences are background and not binding sites
# Settings: protein concentration: 200 nM; construct: GST-full length
# Experimental: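 Universal 'all 10-mer' protein binding microarrays (Agilent AMADID 015681) probed with GST-tagged S. cerevisiae TFs (full-length or DBD) made by in vitro transcription/translation (PURExpress), about 100-200 nM. Bound TF was detected with fluorescent anti-GST. Each ungapped 8-mer (which stands for itself and its reverse complement) is scored by the PBM enrichment score (E-score), a modified Wilcoxon-Mann-Whitney statistic from -0.5 to +0.5, computed with the Universal PBM Analysis Suite. Scale: above 0.35 generally sequence-specific binding.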
row,Sequence,PBM E-score
1,CGCGGGTA,-0.0954
2,AACGACTG,-0.199
3,TTCCAAAA,0.192
4,AAATTTCC,0.0146
5,AGTAGGAT,-0.0677
6,CAGCAAGG,-0.195
7,GAGGAAGA,-0.0553
8,ACAAATGT,0.446
9,GTTCCATA,-0.0709
10,CAGTGGCA,-0.201
11,CAGAATTA,-0.175
12,AGGGATGA,-0.0174
13,GCGATACA,0.00094
14,ATGGCCCC,-0.345
15,CGAAGTAA,0.00816
16,ACATCTGA,0.0825
17,ATATCAAT,0.19
18,CCGCGCTA,0.0389
19,CTAGATAA,0.0565
20,ATCCTCTG,-0.0596
21,AATTGCAT,-0.00309
22,ATACGGCA,0.0902

row,Sequence,PBM E-score
1,ACGTGTAT,-0.0533
2,AACACTAG,-0.0154
3,GCGACTTA,0.0387
4,ACACGCTA,-0.0722
5,CGATAAAG,0.119
6,CTCCGTAC,0.0569
7,AGTCATGA,0.0582
8,ACGCCGGG,-0.126
9,AGATCATG,-0.0829
10,ACCCAGCT,-0.326
11,AGGTCACC,-0.0357
12,GACGTAGA,-0.0822
13,CAATGTAG,-0.109
14,AGCCAGAG,0.0446
15,AATAATAC,0.207
16,CCTGTCTC,-0.0622
17,AAGTGCAC,0.0628
18,GTGTACAC,0.162
19,TACAGGCA,-0.0524
20,CGTGTTAC,-0.216
21,AGGGCATA,-0.16
22,GTGAGTAA,-0.112

row,Sequence,PBM E-score
1,ACCGGGGG,-0.398
2,GTCCTAAA,0.365
3,ACGTCGCC,-0.0749
4,ATTAAATC,0.187
5,ATTGATTA,0.133
6,GTATAATA,0.186
7,AGTAGGGC,-0.042
8,CCACCAGG,-0.372
9,ACCCTTTG,-0.292
10,CGTTTTAC,-0.0418
11,CTATAAAC,0.0886
12,CTACGCCC,-0.291
13,AACGGGAT,-0.0965
14,TAGTTCGA,0.043
15,TCCAACGA,0.082
16,ACCGAAAC,0.0554
17,CTAGATTA,0.143
18,CAGTACGA,0.0277
19,CTTAGGGC,-0.0053
20,GCGCGAAC,0.0676
21,CAAAGTCG,0.137
22,AGTGGTAG,-0.15

row,Sequence,PBM E-score
1,ATTGTGCC,-0.158
2,ATGGTAGG,-0.142
3,GTATGGGA,-0.0805
4,GGATCTCA,0.00437
5,AATGCGGC,-0.0477
6,CGTGATAC,-0.199
7,CCTCCCTC,-0.0838
8,GCAACTCC,-0.225
9,GAACCCAA,-0.0337
10,ATCAGATG,0.00659
11,ATTTGACG,0.15
12,GAAATTGC,-0.0414
13,GGTTACAC,-0.0806
14,AAACCACG,0.0703
15,CCCGAGAC,0.135
16,CATATCGC,0.184
17,GGGGGAAC,-0.456
18,ACCTGCAC,-0.15
19,GTAGGTCA,-0.128
20,CGGTGGTA,-0.0616
